{
  "source": "the supplement of paper PMC7826260",
  "note": "The other results are listed elsewhere or left out. One pool of 16,384 single-stranded DNAs met each Rep nickase domain in vitro for 1 h at 37 °C with 3 µM enzyme; only the middle of the 90-letter strands is printed. The score is log2 (uncut reads / reads without enzyme); more negative means more cut, near 0 not cut, and no call is made. Counts are relative to all reads, so uncut sequences can rise above 0 when many others are cut.",
  "data": [
    {"test_system": "T1, Rep nickase domain of banana bunchy top virus", "T1 sequence (protein, residues 1-94, tag omitted)": "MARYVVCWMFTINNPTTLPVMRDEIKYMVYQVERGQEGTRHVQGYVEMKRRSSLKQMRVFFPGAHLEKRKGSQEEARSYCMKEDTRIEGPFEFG", "assay": "uncleaved DNA left, log2 of reads against the no-enzyme library (log2 ratio); higher = less cleavage (more negative = more Rep cleavage of the k-mer); sequences stand for … in CTCGTCCG…ACCGGAGA", "method": "(§1)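 A pool of 90-nt single-stranded DNAs with seven random bases just before the constant AC of the nick site (name = the seven bases) was cut by 3 µM recombinant His6-SUMO-tagged Rep nickase domain (300 nM DNA, 50 mM HEPES pH 8.0, 50 mM NaCl, 1 mM MnCl2, 1 h, 37 °C, three replicates). Uncut DNA was amplified and sequenced.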", "values": [
      {"sequence": "AAAGTCC", "uncleaved DNA left (log2)": 0.0878},
      {"sequence": "AAGGTAG", "uncleaved DNA left (log2)": 0.0139},
      {"sequence": "ACAGATA", "uncleaved DNA left (log2)": 0.0948},
      {"sequence": "ATCCTCT", "uncleaved DNA left (log2)": -0.0249},
      {"sequence": "CCCGCTC", "uncleaved DNA left (log2)": 0.0328},
      {"sequence": "GAAAACC", "uncleaved DNA left (log2)": 0.0253},
      {"sequence": "ATTCGAG", "uncleaved DNA left (log2)": 0.0431},
      {"sequence": "TCCCGTC", "uncleaved DNA left (log2)": -0.049},
      {"sequence": "GGATGTG", "uncleaved DNA left (log2)": -0.0215},
      {"sequence": "ATAGCTC", "uncleaved DNA left (log2)": -0.127},
      {"sequence": "GGCTAGT", "uncleaved DNA left (log2)": 0.0265},
      {"sequence": "ATAGGGT", "uncleaved DNA left (log2)": 0.108},
      {"sequence": "TTCAGTG", "uncleaved DNA left (log2)": -0.0379},
      {"sequence": "GTACTGG", "uncleaved DNA left (log2)": 0.113},
      {"sequence": "CAAAGTA", "uncleaved DNA left (log2)": 0.00713},
      {"sequence": "CAATGGG", "uncleaved DNA left (log2)": 0.00179},
      {"sequence": "ATGAAAG", "uncleaved DNA left (log2)": 0.0599},
      {"sequence": "ATAATGT", "uncleaved DNA left (log2)": 0.0756},
      {"sequence": "GTGACGT", "uncleaved DNA left (log2)": 0.0231},
      {"sequence": "CTACAAA", "uncleaved DNA left (log2)": 0.00642},
      {"sequence": "CCATCGA", "uncleaved DNA left (log2)": -0.0331},
      {"sequence": "TACGGAC", "uncleaved DNA left (log2)": -0.0965},
      {"sequence": "TGATCCA", "uncleaved DNA left (log2)": 0.0117},
      {"sequence": "GCCTGAC", "uncleaved DNA left (log2)": -0.0902},
      {"sequence": "TGATCCG", "uncleaved DNA left (log2)": -0.0989},
      {"sequence": "TATAGTA", "uncleaved DNA left (log2)": -0.181},
      {"sequence": "GTGGAGT", "uncleaved DNA left (log2)": 0.207},
      {"sequence": "CACTGAG", "uncleaved DNA left (log2)": 0.046},
      {"sequence": "GGGTCTC", "uncleaved DNA left (log2)": 0.12},
      {"sequence": "ATCAGCA", "uncleaved DNA left (log2)": 0.0908},
      {"sequence": "CCTTTTA", "uncleaved DNA left (log2)": 0.0978},
      {"sequence": "CAGGCAT", "uncleaved DNA left (log2)": 0.195},
      {"sequence": "GCATTGG", "uncleaved DNA left (log2)": -0.06},
      {"sequence": "TTTGTAG", "uncleaved DNA left (log2)": -0.0312},
      {"sequence": "ACGCACG", "uncleaved DNA left (log2)": -0.0308},
      {"sequence": "ATATGGT", "uncleaved DNA left (log2)": -0.0256},
      {"sequence": "ATACACG", "uncleaved DNA left (log2)": 0.0159},
      {"sequence": "TCTGGTG", "uncleaved DNA left (log2)": -0.0301},
      {"sequence": "CCTGAGG", "uncleaved DNA left (log2)": 0.17},
      {"sequence": "CCGCACG", "uncleaved DNA left (log2)": -0.0739}
    ]},
    {"test_system": "T2, Rep nickase domain of cabbage leaf curl virus", "T2 sequence (protein, residues 1-116, tag omitted)": "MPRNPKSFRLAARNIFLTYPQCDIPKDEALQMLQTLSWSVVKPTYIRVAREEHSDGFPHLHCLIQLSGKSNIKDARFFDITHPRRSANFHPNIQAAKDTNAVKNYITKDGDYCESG", "assay": "uncleaved DNA left, log2 of reads against the no-enzyme library (log2 ratio); higher = less cleavage (more negative = more Rep cleavage of the k-mer); sequences stand for … in CTCGTCCG…ACCGGAGA", "method": "as §1", "values": [
      {"sequence": "AAAGTCC", "uncleaved DNA left (log2)": -0.000181},
      {"sequence": "AAGGTAG", "uncleaved DNA left (log2)": -0.326},
      {"sequence": "ACAGATA", "uncleaved DNA left (log2)": -0.0725},
      {"sequence": "ATCCTCT", "uncleaved DNA left (log2)": -0.135},
      {"sequence": "CCCGCTC", "uncleaved DNA left (log2)": 0.136},
      {"sequence": "GAAAACC", "uncleaved DNA left (log2)": 0.0853},
      {"sequence": "ATTCGAG", "uncleaved DNA left (log2)": 0.0264},
      {"sequence": "TCCCGTC", "uncleaved DNA left (log2)": 0.293},
      {"sequence": "GGATGTG", "uncleaved DNA left (log2)": -0.247},
      {"sequence": "ATAGCTC", "uncleaved DNA left (log2)": -0.0686},
      {"sequence": "GGCTAGT", "uncleaved DNA left (log2)": 0.28},
      {"sequence": "ATAGGGT", "uncleaved DNA left (log2)": 0.329},
      {"sequence": "TTCAGTG", "uncleaved DNA left (log2)": -0.597},
      {"sequence": "GTACTGG", "uncleaved DNA left (log2)": 0.444},
      {"sequence": "CAAAGTA", "uncleaved DNA left (log2)": -0.399},
      {"sequence": "CAATGGG", "uncleaved DNA left (log2)": -0.692},
      {"sequence": "ATGAAAG", "uncleaved DNA left (log2)": -0.69},
      {"sequence": "ATAATGT", "uncleaved DNA left (log2)": 0.292},
      {"sequence": "GTGACGT", "uncleaved DNA left (log2)": 0.826},
      {"sequence": "CTACAAA", "uncleaved DNA left (log2)": -0.0917},
      {"sequence": "CCATCGA", "uncleaved DNA left (log2)": -0.518},
      {"sequence": "TACGGAC", "uncleaved DNA left (log2)": 0.349},
      {"sequence": "TGATCCA", "uncleaved DNA left (log2)": 0.114},
      {"sequence": "GCCTGAC", "uncleaved DNA left (log2)": 0.0171},
      {"sequence": "TGATCCG", "uncleaved DNA left (log2)": -0.873},
      {"sequence": "TATAGTA", "uncleaved DNA left (log2)": -0.252},
      {"sequence": "GTGGAGT", "uncleaved DNA left (log2)": 0.776},
      {"sequence": "CACTGAG", "uncleaved DNA left (log2)": -0.577},
      {"sequence": "GGGTCTC", "uncleaved DNA left (log2)": 0.595},
      {"sequence": "ATCAGCA", "uncleaved DNA left (log2)": -0.419},
      {"sequence": "CCTTTTA", "uncleaved DNA left (log2)": 0.0702},
      {"sequence": "CAGGCAT", "uncleaved DNA left (log2)": 0.321},
      {"sequence": "GCATTGG", "uncleaved DNA left (log2)": -0.675},
      {"sequence": "TTTGTAG", "uncleaved DNA left (log2)": -0.807},
      {"sequence": "ACGCACG", "uncleaved DNA left (log2)": -0.69},
      {"sequence": "ATATGGT", "uncleaved DNA left (log2)": 0.112},
      {"sequence": "ATACACG", "uncleaved DNA left (log2)": -0.903},
      {"sequence": "TCTGGTG", "uncleaved DNA left (log2)": -0.58},
      {"sequence": "CCTGAGG", "uncleaved DNA left (log2)": 0.683},
      {"sequence": "CCGCACG", "uncleaved DNA left (log2)": -0.501}
    ]},
    {"test_system": "T3, Rep nickase domain of chickpea chlorotic dwarf virus", "T3 sequence (protein, residues 1-124, tag omitted)": "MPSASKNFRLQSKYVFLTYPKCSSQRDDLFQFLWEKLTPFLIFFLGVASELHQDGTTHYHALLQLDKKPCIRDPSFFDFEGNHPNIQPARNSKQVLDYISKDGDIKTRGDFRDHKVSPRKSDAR", "assay": "uncleaved DNA left, log2 of reads against the no-enzyme library (log2 ratio); higher = less cleavage (more negative = more Rep cleavage of the k-mer); sequences stand for … in CTCGTCCG…ACCGGAGA", "method": "as §1", "values": [
      {"sequence": "AAAGTCC", "uncleaved DNA left (log2)": -0.562},
      {"sequence": "AAGGTAG", "uncleaved DNA left (log2)": -0.262},
      {"sequence": "ACAGATA", "uncleaved DNA left (log2)": -1.25},
      {"sequence": "ATCCTCT", "uncleaved DNA left (log2)": -1.79},
      {"sequence": "CCCGCTC", "uncleaved DNA left (log2)": -0.262},
      {"sequence": "GAAAACC", "uncleaved DNA left (log2)": -0.202},
      {"sequence": "ATTCGAG", "uncleaved DNA left (log2)": 0.302},
      {"sequence": "TCCCGTC", "uncleaved DNA left (log2)": -0.0388},
      {"sequence": "GGATGTG", "uncleaved DNA left (log2)": -0.0693},
      {"sequence": "ATAGCTC", "uncleaved DNA left (log2)": -0.553},
      {"sequence": "GGCTAGT", "uncleaved DNA left (log2)": 0.752},
      {"sequence": "ATAGGGT", "uncleaved DNA left (log2)": 1.58},
      {"sequence": "TTCAGTG", "uncleaved DNA left (log2)": -0.763},
      {"sequence": "GTACTGG", "uncleaved DNA left (log2)": 1.01},
      {"sequence": "CAAAGTA", "uncleaved DNA left (log2)": -2.21},
      {"sequence": "CAATGGG", "uncleaved DNA left (log2)": -0.568},
      {"sequence": "ATGAAAG", "uncleaved DNA left (log2)": -0.359},
      {"sequence": "ATAATGT", "uncleaved DNA left (log2)": -0.479},
      {"sequence": "GTGACGT", "uncleaved DNA left (log2)": 1.84},
      {"sequence": "CTACAAA", "uncleaved DNA left (log2)": -1.21},
      {"sequence": "CCATCGA", "uncleaved DNA left (log2)": -0.729},
      {"sequence": "TACGGAC", "uncleaved DNA left (log2)": 0.978},
      {"sequence": "TGATCCA", "uncleaved DNA left (log2)": -0.402},
      {"sequence": "GCCTGAC", "uncleaved DNA left (log2)": 0.531},
      {"sequence": "TGATCCG", "uncleaved DNA left (log2)": -0.275},
      {"sequence": "TATAGTA", "uncleaved DNA left (log2)": -2.05},
      {"sequence": "GTGGAGT", "uncleaved DNA left (log2)": 1.45},
      {"sequence": "CACTGAG", "uncleaved DNA left (log2)": -0.132},
      {"sequence": "GGGTCTC", "uncleaved DNA left (log2)": 1.62},
      {"sequence": "ATCAGCA", "uncleaved DNA left (log2)": -1.03},
      {"sequence": "CCTTTTA", "uncleaved DNA left (log2)": -1.75},
      {"sequence": "CAGGCAT", "uncleaved DNA left (log2)": 1.51},
      {"sequence": "GCATTGG", "uncleaved DNA left (log2)": -0.558},
      {"sequence": "TTTGTAG", "uncleaved DNA left (log2)": -0.42},
      {"sequence": "ACGCACG", "uncleaved DNA left (log2)": 0.0407},
      {"sequence": "ATATGGT", "uncleaved DNA left (log2)": 0.763},
      {"sequence": "ATACACG", "uncleaved DNA left (log2)": -0.155},
      {"sequence": "TCTGGTG", "uncleaved DNA left (log2)": -0.687},
      {"sequence": "CCTGAGG", "uncleaved DNA left (log2)": 1.62},
      {"sequence": "CCGCACG", "uncleaved DNA left (log2)": -0.174}
    ]}
  ]
}
